# Data: PubChem BioAssay AID743279 (National Center for Advancing Translational Sciences (NCATS), 2014)
# Out of some 360,000 compounds screened, about 17,000 (4.7%) were called active. Inconclusive results, whose numbers are uncertain, are shown with a selection of clear calls. Cut-off read from the data, not from the text of the source: active = activity change below about -50%; inconclusive = mostly about -30% to -49%; inactive = weaker than that.
# Test: qHTS for Inhibitors of Inflammasome Signaling: IL-1-beta AlphaLISA Primary Screen
# Conditions: THP-1 LPS/ATP IL-1B secretion, 16 h; at 57.5 µM, stronger effect = lower value
# Summary of the method: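 THP-1 cells pretreated 1 hr with compounds (up to 57.5 uM final), then stimulated with LPS (250 ng/mL final) plus ATP (1.25 mM final); secreted IL-1B measured by AlphaLISA after 16 hr, decreased signal indicating inhibition.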
# % is set by controls: 0 for no effect and ±100 for the full control effect.
row,Compound,activity change
1,CCc1ccc(CNC(=O)C2CCCN(c3nnc(C)c4c(C)n(-c5ccccc5)nc34)C2)cc1 (stereo not drawn),active: -71.3%
2,CCCCCCN1Cc2ccccc2C1,inactive: -0.133%
3,CCN1CCN(Cc2ccc(NC(=O)c3ccc(C)c(/C=C/c4cnc(Nc5cc(N6CCNCC6)nc(C)n5)cn4)c3)cc2C(F)(F)F)CC1,active: -99.8%
4,Cc1cccc(N2CCN(C(=O)c3ccc4nc(-c5ccco5)c(-c5ccco5)nc4c3)CC2C)c1 (stereo not drawn),inconclusive: -35.9%
5,CN(C(=O)CN1C(=O)S/C(=C\c2ccc(Cl)cc2)C1=O)C1CCS(=O)(=O)C1 (stereo not drawn),inconclusive: -38%
6,COc1cccc(/C=C/C(=O)Nc2ccc3c(c2)OCCO3)c1,inconclusive: -48.3%
7,O=c1[nH]c2cc3c(cc2cc1CN(Cc1ccc2c(c1)OCO2)Cc1nnnn1CC1CCCO1)OCO3 (stereo not drawn),inconclusive: -43.9%
8,COC(=O)C1=C(C)N(Cc2ccc3c(c2)OCO3)C(=O)C1,inactive: -3.37%
9,O=C(NCCCCc1ccccc1)c1ccc(Br)cc1,inactive: -8.97%
10,COc1ccc(OC)c(-c2csc(NC(=O)Cc3ccccc3OC)n2)c1,inconclusive: -48%
11,COc1ccccc1CN1CCC(n2nccc2NC(=O)CCCc2ccccc2)CC1,inconclusive: -33.4%
12,CCCn1c(/N=C/c2c[nH]c3ccccc23)nc2ccccc21,inconclusive: -34.4%
13,Cc1cc(C(F)(F)F)c2c(N)c(C(=O)NCc3ccc(Cl)cc3)sc2n1,inconclusive: -44.3%
14,O=S(=O)(Nc1nc2ccccc2nc1N1CCN(c2ccccc2F)CC1)c1ccc(Cl)cc1,inactive: 39.7%
15,Cc1noc(C)c1-c1ccc(C(=O)NCc2ccc(Cl)cc2)c2occc12,inconclusive: -48.6%
16,Fc1ccc2[nH]c3c(N4CCN(Cc5ccc6c(c5)OCO6)CC4)ncnc3c2c1,active: -94.7%
17,COC(=O)c1c(NC(=O)CN2CCOCC2)sc2c1CCC(C)C2 (stereo not drawn),inconclusive: -48.3%
18,CCOc1ccc2oc(C(=O)NCc3ccccc3CN3CCCC3)c(C)c2c1,active: -56.8%
19,CC1(c2nnnn2-c2ccc3c(c2)OCCO3)CCC(=O)N1CCc1c[nH]c2ccccc12 (stereo not drawn),inactive: 11.5%
20,O=C(Nc1ccc(N2CCCC2)c(S(=O)(=O)Nc2cccc(C(F)(F)F)c2)c1)c1cccs1,inconclusive: -48.5%
21,CC1=CC(C)(C)N2C(=O)C3(C(C#N)=C(N)Oc4cc(O)ccc43)c3c(C)c(C)cc1c32 (stereo not drawn),active: -73.3%
22,NC1(C(=O)O)CSSC1,active: -77.2%

row,Compound,activity change
1,Cc1ccc(Cn2nnc3c(=O)n(CC(=O)N4CCN(c5ccccc5)CC4)cnc32)cc1,inconclusive: -34%
2,C=CC[C@@H](CC(=O)N(CCO)Cc1ccccc1)C(=O)N[C@@H](COC(=O)[C@@H](CC=C)Cc1ccc(F)cc1)Cc1c[nH]c2ccccc12,active: -52%
3,Cc1ccc(S(=O)(=O)Nc2ccc3c(c2)nc2n3CCN(Cc3ccccc3)C2)cc1,active: -68.7%
4,CC(=O)Nc1ccc(NC2=CC(=O)c3ccccc3C2=O)cc1,inactive: 19.1%
5,Cc1[nH]c2c(ccc3ccccc32)c1C1C(CCN)C1(C)C (stereo not drawn),inconclusive: -31.6%
6,COc1ccc(OCc2nc3c4cc(OC)c(OC)cc4nc(=S)n3[nH]2)cc1,inactive: 20.8%
7,CCOc1ccc2oc(C(=O)N3CCN(Cc4ccccc4)CC3)c(C)c2c1,inconclusive: -40.1%
8,COc1ccccc1C(=O)NC(=S)Nc1cccc2cc(O)ccc12,active: -85.2%
9,CCC(=O)Nc1nc(C)c(C(=O)Nc2cccc(Cl)c2)s1,inconclusive: -38%
10,COc1ccc(CCNC(=O)CN(c2ccccc2OC)S(=O)(=O)c2ccc(C)cc2)cc1,active: -51.2%
11,COc1cc(CNC(C)(C)CO)cc(Br)c1OCc1ccc(Cl)cc1Cl,inconclusive: -34.8%
12,Cc1ccc(NC(=O)CSc2ncnc3ccccc23)cc1S(=O)(=O)N1CCCCC1,active: -95.5%
13,COc1ccc(CC(=O)N(Cc2ccccc2)c2cccc(C)c2)cc1OC,inconclusive: -35.7%
14,Cc1cc(C)c2c(CN3CCCCCCC3)cc(=O)oc2c1,inactive: 36.6%
15,COc1ccc(NC(=O)c2cc(C3CCCCN3C(=O)c3cc(OC)c(C)c(OC)c3)on2)c(C)c1 (stereo not drawn),inconclusive: -47.1%
16,CCC(=O)c1ccc2c(c1)N(CCCN(C)C)c1ccccc1S2,inconclusive: -49.3%
17,Clc1c(-c2nnc3n2CCC3)sc2ccccc12,inconclusive: -33%
18,COc1cccc(-c2sc3ccccc3c2-c2ccc(OCCN(C)C)cc2)c1,inconclusive: -35.5%
19,COc1ccc(CN2CCCC(C(=O)Nc3cccc(-n4cccn4)c3)C2)c(F)c1 (stereo not drawn),inconclusive: -37.4%
20,CC(C)CCN(C(=O)Cc1ccc(Cl)c(Cl)c1)c1c(N)n(Cc2ccccc2)c(=O)[nH]c1=O,inconclusive: -31.2%
21,CCc1ccc(NC2=CC(=O)C(=O)c3ccccc32)cc1,active: -86.9%
